Laboratory results: ChEMBL document CHEMBL4888484, “Replenishing the malaria drug discovery pipeline: Screening and hit evaluation of the MMV Hit Generation Library 1 (HGL1) against asexual blood stage Plasmodium falciparum ,using a nano luciferase reporter read-out” (2022)
Among all 150,000 compounds or so, about 540 (0.36%) showed an effect of 50% or more. The list shows a part of the results.

system: Plasmodium falciparum; assay: Primary screen in NF54 nanoGlo assay, in single point, at 2uM, 72h; a lower Z score goes with more inhibition; assay type: functional, Erythrocyte; conditions: timepoint 72 hour

SMILES	% Inhibition	Z score
O=C(c1ccoc1)N1CCC[C@H](Oc2cccnn2)C1	-10%	1.14
C[C@H](NCC#N)c1ccc(S(C)(=O)=O)c(F)c1	0%	0.04
Cc1cc(NCC2(O)CCS(=O)(=O)CC2)ncc1Br	-14%	1.54
CN(C)c1nccnc1NCC1(CN2CCCC2)CC1	-7%	1.1
O=C(CNCc1cccc(Br)c1)NC1CC1	-25%	2.29
Cc1c(NC(=O)Cc2noc3ccccc23)cccc1C(=O)N1CCc2sccc2C1	-10%	1.16
O=C(Nc1cccc(-c2nc3cc(Cl)ccc3o2)c1)c1cccs1	11%	-1.45
CCOc1cc2c(cc1OCC)[C@@H]1CC(=O)N(c3ccc(C)cc3)C(=O)N1CC2	-4%	0.64
CCC/C(=C\n1ccnc1)c1ccccc1Cl	-41%	4.75
O=C(Nc1ccc2c(c1)C(O)=Nc1cccnc1O2)c1ccc(F)c(Cl)c1	19%	-1.98
CCOc1ccc(-c2n[nH]cc2CN2C[C@@H]3CCN(S(C)(=O)=O)C[C@]3(CF)C2)cc1	-5%	0.96
Cc1nnc(CN2CCC[C@H]2C(=O)N2CCCCC2)o1	8%	-1.16
O=c1[nH]c(N2CCCCC2)nc2nccc(-c3ccc4ccccc4c3)c12	-8%	1.12
Cc1nccn1[C@@H](C)C(=O)NCc1nccn1C(C)C	6%	-1.12
CCNS(=O)(=O)[C@H]1CCN(C(=O)c2ccc(C)s2)C1	-13%	1.31
Cc1cccc(-c2noc(CS(=O)(=O)C(C)C(=O)NC3CCCC(C)C3C)n2)c1 (stereo unspecified)	-1%	0.13
CC(CC(=O)N1CC(O)CC1c1ccc(C(F)(F)F)cc1)c1ccccc1C(F)(F)F (stereo unspecified)	-3%	0.33
O=C(NS(=O)(=O)c1ccc2[nH]nnc2c1)C1CCC2CC2C1 (stereo unspecified)	-5%	0.53
Cn1cccc1CN(C(=O)c1cc2ccccc2[nH]1)C1CC1	-5%	1
N#Cc1c(NCCC(=O)NCc2ccccc2)nc2ccccn12	-4%	0.48
Cc1oc(C(C)C)cc1C(=O)NCC[C@H]1CCCN(C)C1	-19%	2.44
CN(C(=O)C1CCC(C(=O)N(C)c2ccccc2)CC1)c1ccccc1 (stereo unspecified)	-16%	1.32
Cc1noc(-c2c(C)sc(C)c2S(=O)(=O)Nc2ccccc2F)c1C	-2%	0.26
CC(C)(C)C[C@H]1CCCN1C(=O)c1nnn(C2CCNCC2)c1C(F)F	0%	-0.05
CC(C)Cc1ccc([C@H](C)C(=O)NC2CC[S+]([O-])CC2)cc1 (stereo partly specified)	-4%	0.47
Cc1cccc(CN2CCn3nnc(-c4nc(-c5ccccc5)no4)c3C2=O)c1	-6%	0.67
COc1c[nH]c(C=Cc2cccc(C(=O)O)c2Cl)nc1=O	-5%	0.8

SMILES	% Inhibition	Z score
C[C@@]1(C(=O)NCc2ccccc2)Cn2nc(-c3ccccc3)cc2C(=O)N1c1ccc2c(c1)OCCO2	52%	-8.25
COc1nc(CNC(=O)[C@@H]2CCc3ccccc3O2)nc(N(C)C)n1	1%	-0.11
CS(=O)(=O)N1CCC(C(=O)N(Cc2ccccn2)c2nc3ccc(F)cc3s2)CC1	-12%	2.08
COc1ccc(C2CCCN2C(=O)C2CCCO2)cc1OC (stereo unspecified)	-3%	0.37
Cc1ccc(-n2nc(C(=O)N3CCOCC3)c(=O)n(Cc3ccc(F)cc3)c2=O)cc1	3%	-0.47
Cc1cc(C)n(CCN(C)c2nnnn2-c2ccccc2)n1	3%	-0.56
O=C(CS(=O)(=O)c1cccc(Br)c1)NC[C@H](n1cccn1)C(F)(F)F	-7%	1.28
CCN(CC)C(=O)c1coc(COc2ccc3c(c2)[C@H](c2cccc(F)c2)N(C(=O)CC(C)C)CC3)n1	-2%	0.18
Cc1cc(S(=O)(=O)N2C[C@@H]3CCC[C@@H](C3)C2)c(Cl)cc1F	-9%	1.52
COc1ccc(N2C(=O)c3cc4ccccc4n3C[C@@]2(C)C(=O)NC2CCCCC2)cc1	2%	-0.3
O=C(Nc1cccnc1)c1cccc(S(=O)(=O)N[C@H]2CCCNC2=O)c1	-17%	1.78
CCN(CCO)C(=O)c1cnc(Cc2c(Cl)cccc2Cl)nc1O	-17%	2.34
Cc1ccsc1-c1nc(CN2[C@@H]3CC[C@H]2C[C@@H](O)C3)c(C)o1	3%	-0.25
C=CCNC(=O)c1ccc(-c2ccc3c(c2)OCCO3)o1	-3%	0.66
COC(=O)CCN1CC[C@H](NC(=O)c2cc(F)ccc2O)C1=O	3%	-0.29
COC(=O)[C@@H](C)CS(=O)(=O)NCc1nc(C)cs1	-3%	0.35
c1cn(Cc2noc(C3CC3)n2)c(CN2CCOCC2)n1	4%	-0.48
Cc1cc(NC(=O)N2C[C@H](Cc3ccccc3)[C@@H](O)C2)no1	-10%	1.01
C#CCCC1(CCC(=O)N2CCCC[C@H]2c2ccc(CC)o2)N=N1	-4%	0.5
CNc1nc(CN(C)Cc2snnc2C)cs1	-2%	0.21
N#Cc1c2c(c3nncn3c1Nc1ccc(Cl)cc1)CCCC2	5%	-0.55
CCc1cccc2c(-c3csc(CCN4CCOC4=O)n3)c[nH]c12	-11%	1.52
CN1CCC(N(C)C(=O)c2ccccc2NC2CCCCC2)CC1	6%	-1.03
Cn1ccnc1[C@@]1(CNC(=O)c2ccc(-c3cc[nH]n3)s2)NC(=O)NC1=O	-28%	3.01
Cc1n[nH]c(C)c1CCNC(=O)c1cc(CO)ccn1	6%	-1.24
Cc1ccc(C(=O)N2CCC(COc3ccccc3C(=O)NC3CC3)CC2)c(C)c1	-10%	1.98
